Reference: the supplement of paper PMC8728848
Shown is part of a subset that was picked to be rich in the strongest signals.

test system: Man(a1-3)[Man(a1-6)]Man; assay: glycan array binding signal (z-score within array); higher = stronger binding; details: glycan notation: IUPAC condensed, linker removed
How it was run: (§1)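 The Consortium for Functional Glycomics database supplied 3228 glycan arrays, of which those lacking an available protein sequence were dropped. The binding signal, a within-array Z-score, was averaged across arrays of the same protein sequence and across linkers. Negative scores can be read as non-binding.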

In order of falling “glycan array binding signal (z-score)” value:
1. M-Ficolin Y271F (Homo sapiens) (chain not printed)  0.354
2. Collectin K1 (Homo sapiens) (chain not printed)  -0.241
3. VWF (Homo sapiens) (chain not printed)  -0.371
4. FGF2 (chain not printed)  -0.476

test system: Neu5Ac(a2-3)Gal(b1-3)GalNAc(b1-3)Gal(a1-4)Gal(b1-4)Glc; assay: as above; details: glycan notation: IUPAC condensed, linker removed
How it was run: as §1

In order of falling “glycan array binding signal (z-score)” value:
1. MBP (Homo sapiens) (chain not printed)  -0.124
2. Gal 3 (Homo sapiens) (chain not printed)  -0.156
3. Thrombomodulin Extracellular (Homo sapiens) (chain not printed)  -0.592

test system: Neu5Ac(a2-3)Gal(b1-3)GalNAc(b1-4)[Neu5Ac(a2-3)]Gal(b1-4)Glc; assay: as above; details: glycan notation: IUPAC condensed, linker removed
How it was run: as §1

In order of rising “glycan array binding signal (z-score)” value:
1. Siglec-2 (Homo sapiens) (chain not printed)  -0.151
2. Gal 8-short (Homo sapiens) (chain not printed)  1.62
3. M-Ficolin Y271F (Homo sapiens) (chain not printed)  3.04
4. M-Ficolin G221F A256V (Homo sapiens) (chain not printed)  5.03
5. M-Ficolin (Homo sapiens) (chain not printed)  5.74
6. M-Ficolin G221F (Homo sapiens) (chain not printed)  6.38
7. M-Ficolin A256V (Homo sapiens) (chain not printed)  6.81
